Earlier results, collected in patent publication US20260217837A1, “FGFR3 BINDING MOLECULES AND METHODS OF USE THEREOF” (Regeneron Pharmaceuticals, Inc., priority 2023, published 2026).
Read-outs that look alike come from different tables or passages of the source.

System: FGFR3
Settings: cited from earlier work
[1] = Exemplary FGFR3 D3 binding sequences, antibodies of cited PCT publications
[2] = Table T-1, exemplary FGFR3 parental antibodies of cited publications

| Molecule | Activity [1] | Activity [2] |
| --- | --- | --- |
| PRO-021: anti-FGFR3 IIIc antibody of WO 2006/048877 A2; SEQ ID NO: 32/33 (antibody, V domains shown) VH: QVQLVQSGAEVKKPGSSVKVSCKASGGTFSSYAISWVRQAPGQGLEWMGGIIPIFGTANYAQKFQGRVTITADESTSTAYMELSSLRSEDTAVYYCARDNWFKPFSDVWGQGTLVTVSS VL: DIVMTQSPDSLAVSLGERATINCRSSQSVLYSSNNKNYLAWYQQKPGQPPKLLIYWASTRESGVPDRFSGSGSGTDFTLTISSLQAEDVAVYYCQQYDSIPYTFGQGTKVEIKRT | Antagonistic | Antagonistic |
| PRO-024: anti-FGFR3 IIIc antibody of WO 2006/048877 A2; SEQ ID NO: 34/48 (antibody, V domains shown) VH: QVQLVQSGAEVKKPGSSVKVSCKASGGTFSSYAISWVRQAPGQGLEWMGGIIPIFGTANYAQKFQGRVTITADESTSTAYMELSSLRSEDTAVYYCARVNHWTYTFDYWGQGTLVTVSS VL: DIVLTQSPATLSLSPGERATLSCRASQSVSSSYLAWYQQKPGQAPRLLIYGASSRATGVPARFSGSGSGTDFTLTISSLEPEDFATYYCQQMSNYPDTFGQGTKVEIKRT | Antagonistic | Antagonistic |
| MS-Pro-24: anti-FGFR3 Ig-like domain 3 antibody of WO 2002/102972 A2; SEQ ID NO: 34/35 (antibody, V domains shown) VH: QVQLVQSGAEVKKPGSSVKVSCKASGGTFSSYAISWVRQAPGQGLEWMGGIIPIFGTANYAQKFQGRVTITADESTSTAYMELSSLRSEDTAVYYCARVNHWTYTFDYWGQGTLVTVSS VL: DIVLTQSPATLSLSPGERATLSCRASQSVSSSYLAWYQQKPGQAPRLLIYGASSRATGVPARFSGSGSGTDFTLTISSLEPEDFATYYCQQSNYPDTFGQGTKVEIKRT | Antagonistic | Antagonistic |
| MS-Pro-21: anti-FGFR3 Ig-like domain 3 antibody of WO 2002/102972 A2; SEQ ID NO: 32/33 (antibody, V domains shown) VH: QVQLVQSGAEVKKPGSSVKVSCKASGGTFSSYAISWVRQAPGQGLEWMGGIIPIFGTANYAQKFQGRVTITADESTSTAYMELSSLRSEDTAVYYCARDNWFKPFSDVWGQGTLVTVSS VL: DIVMTQSPDSLAVSLGERATINCRSSQSVLYSSNNKNYLAWYQQKPGQPPKLLIYWASTRESGVPDRFSGSGSGTDFTLTISSLQAEDVAVYYCQQYDSIPYTFGQGTKVEIKRT | Antagonistic | Antagonistic |
